Data reported in PubChem BioAssay (NCATS).
The inconclusive results got no clear call from the source; some entries with a clear call stand among them for comparison. For part of these data: Where the call is inconclusive, the potency comes from a doubtful curve fit. The source made the active and inactive calls. Calls come from the whole dose curve; as a rule, active = well fitted curve in the direction sought with a large enough effect; inconclusive = small, poorly fitted or top-dose-only effect, or another doubt; inactive = no such curve, though single readings can be large; an effect the other way counts as inactive or inconclusive.

Key:
[1] = qHTS of pediatric cancer cell lines to identify multiple opportunities for drug repurposing: Primary screen for RD cells (AID 1347104); note: nearly all actives have a fitted effect of over 55% in size; note: potency is the fitted concentration of half-maximal effect
Procedure, shortened: (§1)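 Viability was measured as metabolically active cells after 48 hours of treatment, read by CellTiter-Glo luminescence. Compounds were tested at multiple final concentrations, giving concentration-response curves.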

[2] = qHTS of pediatric cancer cell lines to identify multiple opportunities for drug repurposing: Confirmatory screen for NB1643 cells (AID 1347109); conditions: NB1643 neuroblastoma cell viability; activity change, negative = cytotoxic: at 45.9 µM (top of the series) unless noted; note: nearly all actives have a fitted effect of over 45% in size
Procedure, shortened: (§2)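 Cells (500-1,000/well) in growth media were settled 5 h at 37 degrees C, then given compounds for 48 h. Viability was read as CellTiter-Glo luminescence. Primary runs used MIPE at 11 points (0.78 nM-46 µM) and NPC at 8 points (0.59 nM-46 µM); follow-ups used 11 points.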

[3] = qHTS of pediatric cancer cell lines to identify multiple opportunities for drug repurposing: Confirmatory screen for SK-N-MC cells (AID 1347111);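 note: potency is the fitted concentration of half-maximal effect; cells exposed to compound for 48 h before the readout; nearly all actives have a fitted effect of over 70% in size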
Procedure, shortened: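 Metabolically active cells were quantified by ATP-dependent luminescence (CellTiter-Glo, 15 min at room temperature) following 48 h treatment. Cells had been plated at 500-1,000 per well and settled for 5 h beforehand.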

[4] = qHTS of pediatric cancer cell lines to identify multiple opportunities for drug repurposing: Confirmatory screen for BT-12 cells (AID 1347112); note: potency is the fitted concentration of half-maximal effect; nearly all actives have a fitted effect of over 55% in size
Procedure, shortened: as §2

[5] = qHTS of pediatric cancer cell lines to identify multiple opportunities for drug repurposing: Primary screen for Rh41 cells (AID 1347108); note: nearly all actives have a fitted effect of over 70% in size; note: potency is the fitted concentration of half-maximal effect;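 for activity change, negative = cytotoxic: luminescence drop marks cytotoxic hits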
Procedure, shortened: as §1

[6] = qHTS of pediatric cancer cell lines to identify multiple opportunities for drug repurposing: Primary screen for MG 63 (6-TG R) cells (AID 1347105); conditions: MG 63 (6-TG R) viability, CellTiter-Glo, 48 h; activity change, negative = cytotoxic: at 46 µM (top of the series) unless noted; note: nearly all actives have a fitted effect of over 50% in size
Procedure, shortened: as §1

[7] = qHTS of pediatric cancer cell lines to identify multiple opportunities for drug repurposing: Primary screen for Rh30 cells (AID 1347107); note: nearly all actives have a fitted effect of over 75% in size; note: potency is the fitted concentration of half-maximal effect
Procedure, shortened: as §2
Tags give direction and shape of the fitted curve.

Q: What does the source list for `CCCN1CCO[C@@H]2c3cc(O)ccc3OC[C@@H]21`?
A: Potency [1]: inconclusive: 3.32 µM [cytotoxic, partial curve, poor fit]; Potency [2]: inactive; Potency [3]: inconclusive: 7.37 µM [cytotoxic, full curve]; Potency [4]: inconclusive: 8.27 µM [cytotoxic, full curve]

Q: What does the source list for `C=CCC1([C@H](C)CCC)C(=O)NC(=O)NC1=O`?
A: Potency [1]: inactive; Potency [5]: inactive

Q: For `CCOC(=O)c1cncn1C(C)c1ccccc1` (stereo unspecified), which Potency [6] is on record?
A: Its Potency is “inactive”.

Q: Which Potency [1] does the source give for `O=C1NCN(c2ccccc2)C12CCN(CCCOc1ccc(F)cc1)CC2` here?
A: The Potency was inconclusive: 26.6 µM [cytotoxic, single point].

Q: And the Potency [7]?
A: The Potency was “inactive”.

Q: What about the Potency [5] of the same molecule?
A: Its Potency is “inactive”.

Q: What does the source list for `COc1cc2cc(c1Cl)N(C)C(=O)C[C@H](OC(=O)C(C)C)[C@]1(C)O[C@H]1[C@H](C)[C@@H]1C[C@@](O)(NC(=O)O1)[C@H](OC)C=CC=C(C)C2`?
A: Potency [1]: inconclusive: 0.0015 µM [cytotoxic, full curve, poor fit]; Potency [7]: inactive; Potency [4]: active: 0.0016 µM

Q: Which Potency [1] does the source give for `CN(C)CCc1c[nH]c2ccc(O)cc12` here?
A: The Potency was inconclusive: 53.4 µM [cytotoxic, single point].

Q: And the Potency [5]?
A: The Potency was inconclusive: 23.8 µM [cytotoxic, partial curve].

Q: Which results are given for `CCOC(=O)C1(c2ccccc2)CCN(CCC(C#N)(c2ccccc2)c2ccccc2)CC1`?
A: Potency [1]: inconclusive: 13.3 µM [cytotoxic, partial curve]; Potency [7]: inconclusive: 15 µM [cytotoxic, partial curve, poor fit]; Potency [5]: inconclusive: 15 µM [cytotoxic, single point]

Q: Which Potency [6] does the source give for `CC(C)(C)NCC(O)c1ccccc1Cl` (stereo unspecified) here?
A: The Potency was “inactive”.

Q: What does the source list for `O=[N+]([O-])c1cc([N+](=O)[O-])c2ccccc2c1`?
A: Potency [1]: inactive; Potency [5]: inactive
